Laboratory results from the supplement of paper PMC11417369.
± gives the standard deviation of the averaged measurements. The list shows a part of the results.

These sequences were tested on PfAP2-G AP2 domain (GST-tagged) (assay: gcPBM binding intensity (ln(normalized median fluorescence intensity)); higher = stronger DNA binding).
Procedure, shortened: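 Binding intensity is defined as the maximum Masliner-normalised natural-log median intensity across replicate spots for either probe orientation. It was measured on an Agilent 4 × 180k array of primer-extended double-stranded 36-bp intergenic genomic probes and negative controls, to which GST-tagged P. falciparum DNA-binding domains made in E. coli were applied for 1 h in 1× PBS with 1% milk, 0.2 mg/ml BSA, 0.5% salmon testes DNA and 0.03% Triton X-100. Detection was by Alexa488 anti-GST antibody and scanning at 488 nm.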

Sequence	gcPBM binding intensity (ln)
TATACATATTTATACACACACACATATATTTATATA [CACACA_site6727]	10.11 ± 0.085
ATATTTTATACTTGCACACAAAATATATTAAAATGG [CACACA_site5139]	10.2 ± 0.19
ATAAAATTGGAGCAAACACACAAGGTTGAAATTAAC [CACACA_site506]	10.09 ± 0.021
TTTTCTATATAGTGTTGTACATTATTGTGTAAAAAT [XGTACX_site3223]	11.2 ± 0.81
TACAATATAAAATACACACGCACACCGAAAAAAAAA [CACACA_site5865]	10.4 ± 0.36
TTATGTTGTAAATGCACACATACAAATACATATACA [CACACA_site1368]	10.2 ± 0.17
ATTTAATATCACAATATATTTTTTACCCTTATCAGC [CACACA_negctrl_site491]	9.7 ± 0.28
ATTTATTAAAAGAAATGTACAGAAAATGTTTGGAAT [XGTACX_site7187]	11 ± 0.49
AAGAAAAAAAAGATAATAATAATAATAATAAAATGA [TGCATGCA_negctrl_site398]	9.7 ± 0.13
TGGTAAATTGAGAATCGTACATTAAAAAACATAAAA [XGTACX_site3253]	11.2 ± 0.77
GGAATGGTACATGATACACACACGCACATATAAATA [CACACA_site7581]	10.8 ± 0.51
TATATGGTATGTATTACACACATATCACATATATAT [CACACA_site3045]	9.98 ± 0.099
GAGGGAAAAAATAATCGTACAAAGAAAAAAAAAAAT [XGTACX_site7361]	11.1 ± 0.69
TATATTCTTTTTTTAACACACAAAAAAAATAAAATA [CACACA_site1898]	9.99 ± 0.29
AAAAAAATTAAAGATTGTACTTGATTTTTCATTTTA [XGTACX_site6685]	11 ± 0.71
TAAAAAATAAAATACACACACATATATATATATATA [CACACA_site1323]	9.93 ± 0.31
AAAGAATTGTATAAAAGTACATATTTGTTTGTTTTA [XGTACX_site7380]	11.2 ± 0.81
TTTTTTTCATAAATTAGGTAATGTCGCAGGGGGACA [TGCATGCA_negctrl_site556]	11.5 ± 0.91
TATTTAAAAACAAAAAGTACTAATATATATTTATAC [XGTACX_site1422]	11 ± 0.75
TATATATTATATATATGTACTTATTCATATATATAA [XGTACX_site3860]	11.2 ± 1
CTTTAATATATTTAAGTGCAAAACTAATATGTAAAG	10.2 ± 0.15
AAAGAAAAAGAAAAAGAAAAAATAAAATAAAATAAA [CACACA_negctrl_site872]	9.59
GACTGAACAACATAATGTACATTTATAAGTATATAT [XGTACX_site3813]	10.9 ± 0.52
AGTAGTATGGAGAAAAGTACATAGTATCTGATAACC [XGTACX_site2040]	11.3 ± 0.88
